Experimental data published in PubChem BioAssay AID686978 (National Center for Advancing Translational Sciences (NCATS), 2013).
The campaign covered roughly 420,000 compounds. About 64,000 (15%) were called active. This list was built around the results that the source calls inconclusive (neither active nor inactive); the mix of calls is not that of the screen. Calls follow the shape of the dose curve; as a rule, active = well fitted inhibition curve with a large enough effect; inconclusive = small, poorly fitted or top-dose-only effect; inactive = flat fitted curve, though single readings scatter. No potency is given beside an inconclusive call; the fits are too rough.

assay: qHTS for Inhibitors of human tyrosyl-DNA phosphodiesterase 1 (TDP1): qHTS in cells in absence of CPT; settings: DT40 Tdp1-/- hTDP1 cells, no CPT, ATP luminescence, 48 h; series mostly up to 46.2 µM; also: nearly all actives have a fitted effect of over 55% in size
Method in brief: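 Stably hTDP1-transfected Tdp1-null chicken DT40 cells were treated with library compounds minus camptothecin and grown for at least 48 hr at 37 °C, after which cellular ATP was quantified by luminescence.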
Potency is read from the fitted curve at half-maximal effect; tags tell the direction and shape of the fitted curve.

Structure (SMILES)	Potency
O=[N+]([O-])c1cccc(-c2nc(-c3ccccn3)no2)c1	inactive
CCCn1c2ccc(F)cc2c2nnc(NN)nc21	inconclusive [inhibitor, single point]
COc1ccc(-n2c(=O)c3ccccc3c3ccccc3c2=O)c(OC)c1	inactive
Cc1ccc(NC(=O)C2(c3ccccc3)CCOCC2)cc1	inconclusive [inhibitor, single point]
COc1ccc(CCNC(=O)c2c(O)nc3c(C)cccn3c2=O)cc1OC	inconclusive [inhibitor, single point]
COc1ccc(C)cc1NC(=O)c1ccc2nc(Cc3ccccc3)oc2c1	inconclusive [inhibitor, partial curve, poor fit]
CCn1c2c(c(=O)n3ncc(C(=O)Nc4ccc(C(=O)OC)cc4)c13)CN(Cc1ccc(OC)cc1)CC2	inconclusive [inhibitor, single point]
COc1ccc(S(=O)(=O)N2CCN(C(=O)c3ccco3)CC2)c(C)c1C	inconclusive [inhibitor, single point]
O=C(c1cc(COc2ccccc2)on1)N1CCCC(CN2CCOCC2)C1 (stereo not given)	inactive
Cc1coc2c1c(C)cc1oc(=O)c(CC(=O)NCCc3ccc(Cl)cc3)c(C)c12	inconclusive [inhibitor, single point]
O=C(c1csnn1)N1CCC[C@@]2(CCN(c3ccccn3)C2)C1	inactive
O=C(Oc1ccccc1)N1CCC2(CC1)CN(c1ccccn1)C2	inconclusive [inhibitor, single point]
N#CCCN(C(=O)COC(=O)CCN=C1NS(=O)(=O)c2ccccc21)c1ccc(F)cc1	inactive
Cc1ccc(NC(=O)C(=O)NCC(c2cccnc2)N2CCN(C)CC2)cc1 (stereo not given)	inactive
Cc1ccc(S(=O)(=O)N(C)C)cc1N	inactive
CSc1nc(-c2ccccc2)nc2c1COC(C)(C)C2	inconclusive [inhibitor, partial curve]
O=C(NCc1ccco1)c1ccc2c(=O)n(Cc3ccco3)c(SCC(=O)N3CCCC3)nc2c1	inconclusive [inhibitor, partial curve, poor fit]
C/C(=N\NC(=S)NCCc1ccccc1)c1ccc(C)cc1	active: 18.4 µM
CCc1noc(C)c1C(=O)Nc1nc(-c2ccc(NC(C)=O)cc2)cs1	active: 20.6 µM
CC1N(C)c2cc(NC(=O)c3cccs3)c(P(=O)(Nc3ccc([N+](=O)[O-])cc3)N3CCOCC3)cc2C1(C)C (stereo not given)	active: 18.4 µM
